Each structure is given as a SMILES string. About 1,200 (2.5%) of roughly 48,000 compounds were called active. About 2% were inconclusive and are not listed.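 How the source made its calls: active means activation of at least 60% and not above a set upper limit (about 1 call in 100 departs from these limits); inconclusive means activation of 40% to 60%, or above that upper limit; inactive means activation under 40%.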 The list shows a part of the results.

The test has as its target Probable G-protein coupled receptor 32 (Homo sapiens) (UniProt O75388). As to the kind of experiment: qHTS for Agonists of Human Resolvin D1 Receptor DRV1. The note with it: CHO-K1 GPR32 beta-arrestin PathHunter luminescence, 90 min; at 76.9 µM; hits give high values; zero percent set by DMSO-only wells. The essentials: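 PathHunter enzyme-fragment complementation, CHO-K1 GPR32 stable line; 2,500 cells/well, overnight attach; cpd 90 min 37 °C 5% CO2; detection reagent 1 h RT; chemiluminescence. DMSO = EC0.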
Chain of UniProt O75388 (O75388 whole entry, looked up, the tested form may be a part): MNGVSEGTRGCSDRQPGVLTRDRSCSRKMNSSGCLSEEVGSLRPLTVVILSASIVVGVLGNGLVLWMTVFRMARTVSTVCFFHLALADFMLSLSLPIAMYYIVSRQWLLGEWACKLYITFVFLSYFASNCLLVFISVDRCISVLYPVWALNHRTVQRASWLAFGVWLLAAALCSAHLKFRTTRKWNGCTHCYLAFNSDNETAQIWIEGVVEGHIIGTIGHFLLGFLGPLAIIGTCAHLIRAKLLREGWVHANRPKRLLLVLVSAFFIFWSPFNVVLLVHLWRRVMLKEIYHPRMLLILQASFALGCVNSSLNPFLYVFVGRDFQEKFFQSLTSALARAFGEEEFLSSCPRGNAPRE
Regarding `O=C(CSc1nnc(CNC(=O)c2c(F)cccc2Cl)o1)Nc1ccccc1F`, the activation was inactive: -10.4%.
Consider `COc1ccccc1-c1c(C)nn2c(N3CCN(c4cccc(Cl)c4)CC3)cc(C)nc12`, for which the activation is inactive: -4.15%.
The value for `Cc1c(NS(=O)(=O)c2cccc(C(=O)O)c2)c(=O)n(-c2ccccc2)n1C` was inactive: 25%.
As for `COc1ccc(OC)c(NC(=O)c2cc3c(s2)-c2ccccc2SC3)c1`, the activation is inactive: -15.8%.
The value for `CC1=C(C(=O)OCc2ccc(C)cc2)C(c2c(Cl)cccc2Cl)CC(=O)N1` (centres undefined) was inactive: 27.2%.
Regarding `Cc1ccc(-n2ncc(C(=O)NC3CCCC3)c2C2CCN(C(=O)OC(C)(C)C)CC2)c(C)c1`, the activation was inactive: -27.7%.
`CS(=O)(=O)c1ncc(N(Cc2ccco2)Cc2ccco2)c(C(=O)Nc2ccccc2Br)n1`: the activation is inactive: -2.93%.
The value for `COc1cccc(Cn2nnc3c(=O)[nH]c(C4CCCN(C(=O)c5ccc(C)cc5)C4)nc32)c1` (centres undefined) was inactive: -21.6%; that for `CNc1nc(Oc2ccc(=O)n(C)n2)nc(N2CCOCC2)n1` was inactive: 6.63%; that for `Cc1ccc(C)c(NS(=O)(=O)c2ccc3c4c(cccc24)C(=O)N3)c1` was inactive: 11.2%.
With `O=S(=O)(c1ccc2ccccc2c1)n1nc(-c2ccco2)nc1NCc1ccc(F)cc1`, the activation is inactive: -20%.
Next, `Cc1cc(C)cc(C(=O)N(Cc2nc(-c3ccc(Cl)cc3)no2)C(C)C)c1`: inactive: 11.5%; `CCOc1ccccc1NC(=O)CN1C(=O)CC(c2ccco2)Sc2ccccc21` (centres undefined): inactive: -31%; `Cc1cc(NC(=O)CCCn2c(C)c3cnn(-c4ccccc4)c(=O)c3c2C)ccc1Br`: inactive: -18.3%.
Next, `CCN(C(=O)CSc1ncc(S(=O)(=O)c2ccc(C)c(Cl)c2)c(=O)[nH]1)c1cccc(C)c1`: active: 75.4%; `COC(=O)c1ccc(OCC(O)Cn2cnc3cc(C)c(C)cc32)cc1` (centres undefined): inactive: -11%; `COCCNC(=O)C(=O)NCC(c1ccc2c(c1)OCO2)N1CCOCC1` (centres undefined): inactive: -13.8%.
Next, `COCCCNC(=O)c1c(NC(=O)c2nc(S(C)(=O)=O)ncc2Cl)sc2c1CCCC2`: inactive: -3.78%; `Cc1ccc(C(=O)Nc2ccc(-c3nc4ccccc4s3)c(O)c2)c(C)c1`: inactive: -4.97%; `CCCCN(C)CCNC(=O)c1cc(=O)[nH]c2ccc(S(=O)(=O)N3CCCCCC3)cc12`: inactive: -6.93%.
For `Cc1cc(NC(=O)c2ccc(-c3ccc(Cl)cc3)o2)cc(-c2nc3ncccc3o2)c1O`, the activation was inactive: 19.6%.
Consider `Cc1ccc(CNC(=O)c2cnc(N(C)C)nc2)cc1`, for which the activation is inactive: -2.54%.
The value for `COc1ccc(-c2nc(C(=O)Nc3cccc(C(C)=O)c3)nn2-c2ccc(Cl)cc2)cc1` was inactive: -15.5%.
Next, `Cc1nc(-n2nc(C)c(Cc3ccccc3Cl)c2C)sc1C(=O)N1CCCCC1C` (centres undefined): inactive: -1.62%; `COc1ccc(NC(=O)c2oc3ccccc3c2NC(=O)c2cc(=O)c3c(C)cc(C)cc3o2)cc1`: inactive: -24.9%; `Cc1ccc(NC(=O)CS(=O)(=O)c2nc(-c3ccc(C)cc3)cn2-c2ccc(C)cc2)cc1`: inactive: -26.4%.
Turning to `CCCCc1ccc(-n2nc3cc(C)c(NC(=O)Cc4ccccc4)cc3n2)cc1`, the activation was inactive: -64.8%.
The value for `Cc1ccc2cccc(NC(=O)COc3ccccc3[N+](=O)[O-])c2n1` was inactive: -5.97%; that for `COC(=O)c1ccccc1NC(=O)Cn1cc(S(=O)(=O)Cc2ccccc2F)c2ccccc21` was inactive: -12.7%.
The value for `CCOC(=O)c1c(C)oc2nc(C)nc(NCc3ccccc3Cl)c12` was inactive: 5.49%; that for `Cc1cc(Nc2ccc(C)c(C)c2)n2cnnc2n1` was inactive: -6.22%; that for `COc1ccc2c(c1)c1c(c(=O)n(-c3ccccc3C)c(=O)n1CC(=O)NCc1ccc(C)cc1)n2C` was inactive: 6.22%.
The value for `Cc1cccc(OCc2ccc(-c3nc(C#N)c(NCCN(C)C)o3)o2)c1` was inactive: -17.4%.
`Cc1ccc(S(=O)(=O)c2cnc(SCC(=O)Nc3cc(C)cc(C)c3)nc2N)cc1`: the activation was inactive: -6.36%.
`CCCN(CCC)C(=O)CSc1nnc2cc(C)c3cc(C)cc(C)c3n12`: the activation was inactive: -2.36%.
For the compound `CCN(CC)c1ccc(NC(=O)CSc2nnc(C)c(=O)[nH]2)cc1`, the activation was inactive: -4.23%.
The value for `CCOC(=O)c1c(NC(=O)COc2ccccc2F)sc2c1CCCC2` was inactive: -7.28%; that for `Cc1cccc(CN2C(=O)c3ccccc3Sc3ccc(C(=O)N4CCCC4)cc32)c1` was inactive: -36.2%; that for `O=C(Nc1cc(Cl)cc(Cl)c1)c1ccc(F)c(S(=O)(=O)NC2CCCC2)c1` was inactive: 9.48%.
In the case of `CCc1ccc(N(CC)C(=O)c2ccc3c(=O)n4c(nc3c2)CCCCC4)cc1`, the activation was inactive: -8.37%.
The value for `COC(=O)c1c(-c2cccs2)csc1NC(=O)c1ccc(Cl)cc1` was inactive: -8.52%; that for `COCCN1C(=O)c2[nH]nc(-c3ccccc3O)c2C1c1ccc(OCc2ccccc2)c(OC)c1` (centres undefined) was inactive: -14.3%.
`COC(=O)c1cc(S(=O)(=O)NCC2CCN(Cc3cc(C)ccc3C)CC2)c[nH]1`: the activation was inactive: -12.7%.
Next, `COc1ccc(-c2cn3c(n2)sc2cc(C(=O)NCc4ccccc4OC)ccc23)cc1`: inactive: -1.04%.
The value for `COc1ccccc1Nc1nn2c(=O)c3ccc(C(=O)NCc4cccs4)cc3nc2s1` was inactive: -6.12%.
With `COc1ccc(N2CCN(C(=O)c3ccc(C)c(NC(=O)c4nsc5ccccc45)c3)CC2)cc1`, the activation is inactive: -17.8%.
Turning to `COc1ccc(OC)c(S(=O)(=O)NCCc2sc(-c3ccc(C)cc3)nc2C)c1`, the activation is inactive: 22.7%.
Next, `CCOC(=O)c1c(NC(=O)/C=C/c2ccccc2)sc2c1CCCC2`: inactive: 20.1%; `COc1cccc(Cn2c(CNC(=O)C(C)C)nc3cccnc32)c1`: inactive: -1.91%; `Cc1ccc2c(=O)c(C(=O)c3ccc(F)cc3)cn(CC(=O)NCc3ccccc3)c2n1`: inactive: 5.4%.
With `COc1ccc(C(=O)Nc2ccc(-c3nc4ncccc4o3)cc2)cc1`, the activation is inactive: 12.4%.
The value for `CC(C)(C)OC(=O)N1CCC(c2c(C(=O)NCc3ccccn3)cnn2-c2ccccc2)CC1` was inactive: -16.3%; that for `Cn1c(SCC(=O)N2CCCc3ccccc32)ncc(C(=O)Nc2ccc(Cl)cc2)c1=O` was inactive: 4.01%.
Next, `COc1cccc(CN(Cc2ccco2)c2cnc(S(C)(=O)=O)nc2C(=O)Nc2cccc(Cl)c2C)c1`: inactive: -15%.
Next, `CCc1nc2nc(C)cc(Nc3ccc(OC)cc3)n2n1`: inactive: 3.68%.
`CN(C1CCCCC1)S(=O)(=O)c1ccc2c(c1)c(=O)c(C(=O)NCCc1ccc(Cl)cc1)cn2C`: the activation was inactive: -3.24%.
Take `Cc1ccc(-c2nnc(Nc3cccc(Cl)c3)c3ccccc23)cc1S(=O)(=O)NCC1CCCO1` (centres undefined): the activation was inactive: -22.9%.
As for `CCS(=O)(=O)N1CCC(C(=O)NCCC(C)C)CC1`, the activation was inactive: -10.2%.
For the compound `CSCCC(NS(=O)(=O)c1ccc2c(c1)oc(=O)n2C)C(=O)NCCc1ccc(C)cc1` (centres undefined), the activation is inactive: -3.59%.
The value for `O=c1[nH]cnc2nc[nH]c12` was active: 82%; that for `O=S(=O)(NCCSc1nnnn1-c1ccccc1)c1ccc(F)cc1` was inactive: 8.1%.
Next, `Cc1ccc(-c2onc(C)c2C)cc1S(=O)(=O)NCc1ccco1`: inactive: 1%.
The value for `COc1cccc(OCCCCn2c(-c3ccc(Cl)cc3)nc3ccccc3c2=O)c1` was inactive: -11.3%; that for `CCOc1cc(C(=O)Nc2cccc(-c3nc4ccccc4o3)c2)cc(OCC)c1OCC` was inactive: 16.7%; that for `Cc1ccc(S(=O)(=O)c2cnc(SCC(=O)Nc3ccc4c(c3)OCCO4)[nH]c2=O)cc1` was inactive: 28.8%.
Turning to `O=C(c1cccc([N+](=O)[O-])c1)N1c2ncnn2C2(CCCCC2)[C@@H]2CCCC[C@@H]21`, the activation is inactive: -17.9%.
The value for `CC(=O)Nc1ccc(S(=O)(=O)NC2(C(F)(F)F)NC(=O)N(c3ccc(C)cc3)C2=O)cc1` (centres undefined) was inactive: -3.69%; that for `Cc1ccc(CNC(=O)c2ccc(CSCc3ccc(Cl)cc3)o2)cc1` was inactive: -13.5%.
As to `CCc1ccccc1NC(=O)CN1C(=O)CCc2cc(S(=O)(=O)N3CCCCC3)ccc21`, the activation is inactive: 8.97%.
Next, `CCCCNS(=O)(=O)c1ccc2nc(NC(=O)c3cccnc3)sc2c1`: inactive: 42.3%.
Take `C/C(=C(/OCCOc1ccc(Cl)cc1)c1ccc(Cl)cc1Cl)n1ccnc1`: the activation is inactive: -66%.
Next, `Cc1ccc(-n2ccnc(NCc3ccccc3)c2=O)cc1C`: inactive: 42.9%; `O=C(NCc1cccc(F)c1)C1=Cc2cc(Br)ccc2OC1`: inactive: 4.5%.
The value for `CCOc1ccccc1C(=O)Nc1c(NC)c2ccccc2oc1=O` was inactive: -8.79%.
Next, `Cn1c(=O)oc2cc(S(=O)(=O)N3CCCC(C(=O)Nc4ccc(Br)cc4F)C3)ccc21` (centres undefined): inactive: -8.96%; `O=C(Nc1cc(C(F)(F)F)ccc1Cl)c1cc2nc(-c3ccc4c(c3)OCO4)cc(C(F)(F)F)n2n1`: inactive: -10.2%; `COc1ccc(OCCCn2c(=O)oc3ccc(C)cc32)cc1`: inactive: -26.3%.
In the case of `COc1ccc(N(CC(=O)NCc2ccc(F)cc2)S(=O)(=O)c2c(C)n[nH]c2C)cc1`, the activation is inactive: 4.01%.
For `O=C(CSc1nc2c(oc3ccccc32)c(=O)n1Cc1ccco1)Nc1cccc(Cl)c1`, the activation is inactive: 33.6%.
Next, `Cc1cn(C)c(CC(=O)Nc2cccc(Cl)c2C)c1C(=O)O`: inactive: -3.1%; `Cc1cc(C)cc(NC(=O)CN2C(=O)c3ccccc3Sc3ccc(C(=O)N4CCOCC4)cc32)c1`: inactive: -8%; `COc1cc2c(cc1NS(=O)(=O)c1cccc(C#N)c1)n(C)c(=O)n2C`: inactive: 6.99%.
Turning to `Cc1ccc(C)c(Cn2nnc(C(=O)NCc3ccc(Cl)cc3Cl)c2N)c1`, the activation is inactive: -4.7%.
Regarding `CCc1ccc(NC(=O)c2ccc(F)c(S(=O)(=O)N3CCC(C)CC3)c2)cc1`, the activation was inactive: -11.3%.
